Reference: PubChem BioAssay AID488896 (Broad Institute, 2010)
Several values for one entry are separate records, joined by “and”; a condition that tells them apart may be missing. Equal values may be shown once. Among all 320,000 compounds or so, about 3,100 (0.97%) were called active. The inconclusive results got no clear call from the source; some entries with a clear call stand among them for comparison.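 How the source made its calls: active means mean replicate inhibition of at least 70% and a set share of replicates each scoring 70 or more; inconclusive means meets just one of the two criteria; inactive means fails both criteria.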 Some structures have more than one record in an assay (separate samples or runs), and their calls can disagree.

These compounds were tested against Scavenger receptor class B member 1 (Mus musculus) (UniProt Q61009) (assay: inhibitors of SR-BI mediated HDL lipid uptake, primary screen, ldlA[mSR-BI] cells, fluorescence, single point (AID 488896;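 further: 0% = median of neutral control wells and 100% = median of positive control wells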)). Conditions: ldlA[mSR-BI] CHO cells, DiI-HDL uptake fluorescence, 3 h; at 12.5 µM; stronger effect = higher value.
Chain of UniProt Q61009 (Q61009 whole entry, looked up): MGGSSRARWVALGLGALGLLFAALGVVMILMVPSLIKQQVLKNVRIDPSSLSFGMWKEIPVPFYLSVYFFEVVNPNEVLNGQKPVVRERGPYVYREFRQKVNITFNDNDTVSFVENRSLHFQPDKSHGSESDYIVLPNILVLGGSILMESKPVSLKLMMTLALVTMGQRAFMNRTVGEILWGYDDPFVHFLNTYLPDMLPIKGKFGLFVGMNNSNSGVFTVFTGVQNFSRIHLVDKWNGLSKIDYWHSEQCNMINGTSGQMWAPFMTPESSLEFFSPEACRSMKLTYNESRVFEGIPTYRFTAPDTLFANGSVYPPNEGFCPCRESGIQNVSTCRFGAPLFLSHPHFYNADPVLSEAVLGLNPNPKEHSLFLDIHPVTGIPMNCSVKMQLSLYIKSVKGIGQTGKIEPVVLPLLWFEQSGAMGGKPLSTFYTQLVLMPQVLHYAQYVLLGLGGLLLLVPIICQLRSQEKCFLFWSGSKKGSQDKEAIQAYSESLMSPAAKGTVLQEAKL

Compound	inhibition
COc1ccc(CNC(=O)CN(C(=O)c2csnn2)c2cccc3c2CCCC3)cc1	active: 75.8%
CCOc1cccc(/C=C/c2ccc3cccc(O)c3n2)c1O	inactive: 14.1%
CC1CCCC(C)N1C(=C(Cl)Cl)C(=C1SCCS1)[N+](=O)[O-] (stereo unspecified)	inactive: 15.2%
COc1cc(-n2c(N)c(C(=O)NCc3ccco3)c3nc4ccccc4nc32)cc(OC)c1OC	inactive: -1.33%
Cc1cccc(NS(=O)(=O)c2cccc(C(=O)NNC(=O)c3ccccc3O)c2)c1	inconclusive: 72.1%
COc1ccc(-c2cc(C(F)(F)F)n3nc(C(=O)Nc4c(C)n(C)n(-c5ccccc5)c4=O)cc3n2)cc1	active: 79.5%
O=C(O)c1ccccc1NN=C1CCCCC1	inactive: -24.4%
COc1cc2c(cc1NCc1ccccn1)oc1ccccc12	inconclusive: 71.2%
Cc1cc(C)c(C)c(S(=O)(=O)N2CCN(C(=O)c3cc(S(=O)(=O)N4CCOCC4)ccc3F)CC2)c1C	inactive: 44.3%
O=C(/C=C/NNC(=O)c1ccccc1)c1ccccc1	inconclusive: 70.9%
COc1ccc(OC)c(NC(=O)c2c3c(nc4ccccc24)CCC3)c1	inconclusive: 72.8%
CCc1nnc(NC(=O)c2ccc(OCc3c(C)noc3C)c(OC)c2)s1	active: 84.2%
COc1ccc(-n2c(C)c3c(OC)cccc(=O)c3c2C)cc1	inactive: 25.7%
C[C@@H](C(=O)NC1CCN(Cc2ccccc2)CC1)N1C(=O)N2CCc3c([nH]c4ccccc34)[C@@]2(C)C1=O	inconclusive: 70.4%
COc1cccc(N=C2SC(C(=O)Nc3ccccc3F)CC(=O)N2C)c1 (stereo unspecified)	inconclusive: 71.2%
CC(C)CNc1ncnc2[nH]ncc12	inactive: -9.63%
FC(F)(F)c1cc(-c2cccs2)nc2nc(N3CCOCC3)sc12	inconclusive: 74.1%
Cc1cccc(OCC(=O)NCc2n[nH]c(=O)c3ccccc23)c1	inconclusive: 70.8%
O=[N+]([O-])c1ccc(N2CCCC2)cc1NCc1ccccc1	inconclusive: 72.2%
CCCN(CCC)S(=O)(=O)c1ccc(C(=O)Nc2nnc(-c3cc(OC)cc(OC)c3)o2)cc1	inconclusive: 71.9%
Clc1ccc(COn2c(-c3ccccc3)nc3ccccc32)cc1	inconclusive: 70.1%
COc1ccc(Br)cc1/C=C/c1ccc2cccc(O)c2n1	inconclusive: 72.1%

Compound	inhibition
COC1(C)CC2C(CC1OC(=O)c1cc([N+](=O)[O-])cc([N+](=O)[O-])c1)C2(C)C (stereo unspecified)	active: 93.2% and inactive: 66.7%
CCN(c1ccc(NC(=O)CSCc2c(C)noc2C)cc1)C(C)C	inactive: 12.7%
COc1ccc(/C=N/Nc2nc(C)cc(-c3ccccc3)n2)cc1OC	inconclusive: 70.7%
O=C(Nc1nc(-c2cccs2)cs1)c1cccc(S(=O)(=O)N2CCCCC2)c1	inconclusive: 71.9%
CC(=O)Nc1cccc(Nc2nc(-c3ccccc3F)nc3ccccc23)c1	inconclusive: 74.8%
CCOC(=O)c1c(C)nc2sc3c(=O)n(-c4ccc(C(C)=O)cc4)nnc3c2c1-c1ccc(Cl)cc1	inconclusive: 70.5%
COc1cccc(/C=N/NC(=O)c2c(C)nc3ccc(Cl)cn23)c1O	active: 120%
CC(C)(C)c1cc(C(=S)N2CCCC2)cc(C(C)(C)C)c1O	inactive: 30.1%
Nc1c2c(nc3cccc(Cl)c13)N(c1ccccc1)CC2	inconclusive: 70.2%
Cc1ccc(C)c(Nc2c([N+](=O)[O-])cc(C(=O)N3CC(=O)Nc4ccccc43)cc2[N+](=O)[O-])c1	inconclusive: 71.7%
COc1ccc(-c2sc3ccc(OC)cc3c2C#Cc2cncn2C)cc1	inconclusive: 72%
COC(=O)CN1C(=O)N/C(=C/c2cc(OC)c(OC)cc2C)C1=O	inactive: -24.9%
COc1ccc(/C=N/Nc2nncc3ccccc23)c(OC)c1	active: 75.8%
O=C(C1=COCCO1)N(Cc1nnc(-c2ccccc2Cl)o1)C1CC1	inconclusive: 75.3%
CN(c1ccccc1C(=O)Nc1ccc(F)c(F)c1)S(C)(=O)=O	inconclusive: 73.5%
COc1ccc(C(=O)Nc2cccc(C(=O)N/N=C/c3ccc(OC)cc3OC)c2)cc1	active: 89.5%
Cc1ccc2ncccc2c1	inactive: -4.89%
Cc1cc(/C=N/NC(=O)c2cccc(F)c2)c(C)n1-c1ccccc1	active: 73%
COc1cccc(-c2nc(N3CCC(C)CC3)c3ccccc3n2)c1O	inconclusive: 71.4%
O=S(=O)(c1ccc(F)cc1)N1CCN(S(=O)(=O)c2cccs2)CC1	inactive: 6.1%
CCC(=O)Nc1cccc(-c2cn3cccc(C)c3n2)c1	inconclusive: 71.1%
Cc1cc(C)cc(NC(=O)c2cc3c(=O)n4ccccc4nc3s2)c1	active: 78%

Compound	inhibition
O=C(OCC(=O)N1CCN(C(=O)c2ccco2)CC1)c1cc(-c2ccccc2)nc2ccccc12	inconclusive: 70.5%
COc1ccccc1N1CCN(C(=O)c2ccc(-c3nc4ccccc4s3)o2)CC1	inactive: 10.4%
N#C/C(C(=O)Nc1ccc(Cl)cc1)=C(/S)Nc1ccccc1	inconclusive: 71%
Cc1nn(Cc2c(Cl)cccc2Cl)c(C)c1NC(=O)CCCn1nc([N+](=O)[O-])c(Cl)c1C	active: 80.1%
CCCCn1nc2cc(C(=O)NCc3ccco3)ccc2c1OCC	inconclusive: 71.4%
O=c1oc2cc(O[C@@H]3OC[C@@H](O)[C@H](O)[C@H]3O)ccc2c2ccccc12	inconclusive: 70%
COc1ccc(OC)c(-c2cc(C(=O)Nc3cc(C)on3)no2)c1	inconclusive: 71.1%
O=C(Nc1ccc(-c2csc(Nc3ccc(Cl)cc3)n2)cc1)c1ccccc1	active: 92.8%
CC(C)c1ccc(NC(=O)CSc2n[nH]c(=O)n2-c2cccnc2)cc1	inactive: -9%
CCOC(=O)C1=C(C)C(c2cccc(Oc3ccccc3)c2)NC(=S)N1 (stereo unspecified)	inconclusive: 71.7%
CCC(=O)Nc1nc(C)c(-c2csc(Nc3ccccn3)n2)s1	inconclusive: 75%
O=C(N/N=C/c1cn(Cc2cccc(F)c2)c2ccccc12)c1cc(O)cc(O)c1	inactive: -5.52%
CCOC(=O)c1cnc2ccc(C(=O)OC)cc2c1Nc1ccc2c(c1)OCCO2	inconclusive: 71.6%
O=[N+]([O-])c1cc(S(=O)(=O)Nc2ccc(Cl)cc2)ccc1N/N=C/c1ccncc1	active: 72.2%
COc1ccccc1N1CCN(C(=S)Nc2ccc3nc(N4CCOCC4)cc(C)c3c2)CC1	inconclusive: 71.1%
CN1CCN(Cc2cc(=O)oc3cc4c(cc23)CCC4)CC1	inactive: -8.59%
COC(=O)c1ccc2c(c1)C(C)(C)C(/C=C/c1ccc(O)cc1)=[N+]2C	inconclusive: 71.4%
N#C/C(=C(/O)c1ccco1)c1nc2ccccc2s1	inactive: -15.8% and inactive: -2.28%
Cc1nn(-c2ccccc2)c(C)c1C(=O)NCCc1ccc(Cl)cc1	inactive: 0.101%
COc1ccc(C(=O)Nc2ccc(N3CCN(C(=O)c4cccs4)CC3)cc2)cc1Br	active: 72.2%
CCN1/C(=C\C=C2\C(=O)N(C)C(=S)N2C)Sc2ccccc21	inconclusive: 74.3%
O=C(Nc1cccc(S(=O)(=O)N2CCCC2)c1)c1cc(-c2ccccn2)nc2ccccc12	inconclusive: 78.5%

Compound	inhibition
Cc1cc(-c2csc(NC(=O)c3cccc(S(=O)(=O)N(C)C)c3)n2)c(C)n1-c1ccccc1	inconclusive: 70.1%
O=C(Nc1ccc(C(=O)N2CCOCC2)cc1)c1cnn2c(C(F)F)cc(-c3ccccc3)nc12	inactive: 62.1%
COc1ccccc1CNC(=O)Cc1csc(NC(=O)Nc2ccccc2OC)n1	inconclusive: 75.3%
Cc1cccc(/C=N/NC(=O)c2ccc3c(c2)OCCO3)c1O	active: 111%
COc1cc(Cl)c(C)cc1NC(=O)c1cccc(OC)c1OC	inconclusive: 71.9%
C/C(=N\NC(=O)c1ccccc1O)c1c(O)cc(C)oc1=O	active: 101%
CCCc1nn2c(=O)cc(CSCC(=O)Nc3ccccc3)nc2s1	inactive: -17.5%
COc1ccc(-c2nn(-c3ccccc3)cc2/C=N/NC(=O)c2ccc(Br)o2)cc1	active: 82%
CC(C)Oc1ccc(C(=O)Nc2ccc(N(C)C)cc2)cc1	inconclusive: 70.4%
CCOc1ccc(OCC(=O)N2CCC3(CC2)CC(=O)c2ccccc2O3)cc1	inactive: 6.32%
Cc1ccc(C(=O)Nc2nnc(NC(=S)Nc3ccccc3)s2)cc1	inconclusive: 70.2%
CCCCNc1ccc(C(=O)Nc2cccc(C)n2)cc1[N+](=O)[O-]	inconclusive: 71.7%
CNC(=O)c1cccc(NC(=O)c2cc(-c3ccccc3)nc3c2cnn3C(C)C)c1	active: 82.2%
CCO/N=C/c1ccc(OC)c(Oc2nc(OC)cc(OC)n2)c1	inactive: 2.17%
CCN1C(=O)C(CC(=O)Nc2cc(C)ccc2C)SC1=Nc1ccc(S(N)(=O)=O)cc1 (stereo unspecified)	inconclusive: 78%
CS(=O)(=O)c1ccc(Cl)c(NC(=O)Cc2ccccc2F)c1	inconclusive: 71.7%
COc1ccc(N=Nc2c(C)[nH]c3ccccc23)cc1	active: 87.9%
COc1cc(/C=C2\CC/C(=C\c3cc(OC)c(OC)c(OC)c3)C2=O)cc(OC)c1OC	inconclusive: 70.1%
O=C(Nc1nc2ccccc2n1Cc1ccccc1)c1ccc(COc2ccccc2[N+](=O)[O-])o1	inconclusive: 71.9%
O=C(Cn1c(COc2ccccc2)nc2ccccc21)Nc1cc(Cl)ccc1Cl	inactive: 9.23%
